{"source": "the supplement of paper PMC3334620", "note": "Over roughly 33,000 sequences, “E-score (-0.5 to 0.5)” has its median near -0.032; the highest 2% begin near 0.36. Some of the results follow."}
{"target": "T1, Sko1 (UniProt Q02100)", "T1 sequence": "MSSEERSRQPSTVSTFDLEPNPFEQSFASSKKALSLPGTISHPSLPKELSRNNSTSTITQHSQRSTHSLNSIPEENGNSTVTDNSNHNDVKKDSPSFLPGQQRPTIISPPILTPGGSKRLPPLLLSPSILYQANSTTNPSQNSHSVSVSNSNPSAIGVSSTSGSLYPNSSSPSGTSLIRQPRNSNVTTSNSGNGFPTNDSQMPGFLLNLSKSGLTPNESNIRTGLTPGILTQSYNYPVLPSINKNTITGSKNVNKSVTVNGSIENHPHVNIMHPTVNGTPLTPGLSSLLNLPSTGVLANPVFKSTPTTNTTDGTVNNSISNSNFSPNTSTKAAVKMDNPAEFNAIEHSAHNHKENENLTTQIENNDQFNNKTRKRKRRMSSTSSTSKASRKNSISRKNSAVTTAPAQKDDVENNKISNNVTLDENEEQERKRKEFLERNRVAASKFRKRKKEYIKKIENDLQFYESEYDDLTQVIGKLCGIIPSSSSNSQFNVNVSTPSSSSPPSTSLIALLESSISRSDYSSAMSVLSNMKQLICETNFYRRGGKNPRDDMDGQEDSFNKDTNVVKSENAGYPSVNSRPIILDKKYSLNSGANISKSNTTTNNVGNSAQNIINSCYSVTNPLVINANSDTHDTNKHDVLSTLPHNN", "test": "PBM E-score (8-mer binding enrichment) (E-score (-0.5 to 0.5)); higher = stronger / more preferred TF binding; most listed sequences are background and not binding sites", "conditions": "protein concentration: 200 nM; construct: GST-full length", "summary_of_the_method": "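Detection of bound protein used fluorescent anti-GST, with scans normalised by masliner. The proteins were GST-tagged yeast transcription factors applied at about 100-200 nM to universal all-10-mer Agilent arrays made double-stranded by primer extension. Each ungapped eight-base word, pooled with its reverse complement, was scored with an E-score from the Universal PBM Analysis Suite.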"}
{"sequence": "GGCTGTCA", "PBM E-score": -0.243}
{"sequence": "CCGAACTC", "PBM E-score": -0.125}
{"sequence": "AGTGCAGG", "PBM E-score": -0.123}
{"sequence": "AGATACCA", "PBM E-score": -0.0643}
{"sequence": "CCATGTAA", "PBM E-score": 0.0164}
{"sequence": "ACTCTCAT", "PBM E-score": 0.0617}
{"sequence": "AGCGGAAA", "PBM E-score": -0.0595}
{"sequence": "ATACCTTA", "PBM E-score": -0.0338}
{"sequence": "TAAGGCAA", "PBM E-score": 0.063}
{"sequence": "AGTGTTAG", "PBM E-score": 0.0857}
{"sequence": "TCAGGCCA", "PBM E-score": -0.147}
{"sequence": "CCACGGCA", "PBM E-score": -0.214}
{"sequence": "AGTCATTG", "PBM E-score": 0.0177}
{"sequence": "CTCCAGGC", "PBM E-score": -0.167}
{"sequence": "CTTGCGGC", "PBM E-score": -0.209}
{"sequence": "AATCCCGG", "PBM E-score": -0.283}
{"sequence": "GGCAGCAA", "PBM E-score": -0.206}
{"sequence": "CTTCTGCA", "PBM E-score": 0.0202}
{"sequence": "GCGAACGA", "PBM E-score": 0.0197}
{"sequence": "ACACCCTC", "PBM E-score": -0.189}
{"sequence": "ATGCGACA", "PBM E-score": 0.16}
{"sequence": "GGCCGGCC", "PBM E-score": -0.32}
{"sequence": "ACAATTTA", "PBM E-score": 0.0364}
{"sequence": "AACGCACG", "PBM E-score": 0.31}
{"sequence": "TCACACAA", "PBM E-score": 0.12}
{"sequence": "GAATCTGA", "PBM E-score": 0.017}
{"sequence": "ACGTCCGA", "PBM E-score": 0.2}
{"sequence": "AGTCTTAC", "PBM E-score": 0.122}
{"sequence": "AGCTTGCA", "PBM E-score": 0.0429}
{"sequence": "AAGTTTGA", "PBM E-score": -0.0137}
{"sequence": "CACGAGCC", "PBM E-score": -0.282}
{"sequence": "AATCGTGT", "PBM E-score": 0.0793}
{"sequence": "AAGATGTC", "PBM E-score": 0.0266}
{"sequence": "CTTTCCAA", "PBM E-score": 0.033}
{"sequence": "AAGCACAT", "PBM E-score": 0.0115}
{"sequence": "AACTCGGA", "PBM E-score": -0.282}
{"sequence": "AGACGTCA", "PBM E-score": 0.484}
{"sequence": "CATGGTGG", "PBM E-score": -0.224}
{"sequence": "GCAGACCC", "PBM E-score": -0.359}
{"sequence": "CGTATTCC", "PBM E-score": 0.317}
{"sequence": "CGGCAGCC", "PBM E-score": -0.384}
{"sequence": "AGTCCATA", "PBM E-score": -0.057}
{"sequence": "AATCTTAC", "PBM E-score": 0.211}
{"sequence": "GATCCGAC", "PBM E-score": -0.122}
{"sequence": "ACTCGGCT", "PBM E-score": -0.284}
{"sequence": "AGGACGTA", "PBM E-score": 0.374}
{"sequence": "GGTCGGAA", "PBM E-score": -0.117}
{"sequence": "AAAACAGG", "PBM E-score": -0.163}
{"sequence": "CAGTCAAC", "PBM E-score": -0.244}
{"sequence": "ATGCACAG", "PBM E-score": -0.00909}
{"sequence": "AGACAACC", "PBM E-score": -0.16}
{"sequence": "AATGTCAA", "PBM E-score": 0.0308}
{"sequence": "CAGTTTTC", "PBM E-score": -0.0732}
{"sequence": "AGCCTGAG", "PBM E-score": -0.218}
{"sequence": "CATTAAGA", "PBM E-score": -0.00803}
{"sequence": "TATGCAGA", "PBM E-score": 0.0134}
{"sequence": "ACATAAAG", "PBM E-score": 0.185}
{"sequence": "AGCAGCCC", "PBM E-score": -0.337}
{"sequence": "GGGCTCTA", "PBM E-score": -0.169}
{"sequence": "CCCATCGA", "PBM E-score": -0.0167}
{"sequence": "ACAGGTTC", "PBM E-score": -0.291}
{"sequence": "AAGTAGGA", "PBM E-score": 0.118}
{"sequence": "CGATACCG", "PBM E-score": -0.121}
{"sequence": "ACTTGCTA", "PBM E-score": -0.109}
{"sequence": "GTAAGTGA", "PBM E-score": 0.215}
{"sequence": "CGATATGA", "PBM E-score": 0.166}
{"sequence": "CTCCTCCC", "PBM E-score": -0.201}
{"sequence": "AATTGCTA", "PBM E-score": 0.153}
{"sequence": "ACCCCCGT", "PBM E-score": -0.321}
{"sequence": "CCTTACGC", "PBM E-score": 0.303}
{"sequence": "AATTACTA", "PBM E-score": 0.195}
{"sequence": "CATATTAC", "PBM E-score": 0.313}
{"sequence": "GCTGAAAC", "PBM E-score": 0.0455}
{"sequence": "AGTTGCTG", "PBM E-score": -0.0248}
{"sequence": "CATACTCC", "PBM E-score": 0.132}
{"sequence": "AAGATACG", "PBM E-score": 0.315}
{"sequence": "CGCATAAG", "PBM E-score": 0.109}
{"sequence": "AATGCTGG", "PBM E-score": -0.121}
{"sequence": "ACGGGGCA", "PBM E-score": -0.0579}
{"sequence": "AGACTCGC", "PBM E-score": -0.259}
{"sequence": "CCCGCGGA", "PBM E-score": -0.214}
{"sequence": "ATTCTGGG", "PBM E-score": -0.116}
{"sequence": "AAACCAAG", "PBM E-score": -0.00877}
{"sequence": "ATGAGTCG", "PBM E-score": -0.0823}
{"sequence": "GACAGCTA", "PBM E-score": -0.129}
{"sequence": "ATACAGGC", "PBM E-score": -0.194}
{"sequence": "CCTGCAAC", "PBM E-score": -0.0407}
{"sequence": "ATTAAATA", "PBM E-score": 0.288}
{"sequence": "AGATGTAC", "PBM E-score": "-4e-05"}
{"sequence": "ATTATCAG", "PBM E-score": 0.0813}
{"sequence": "CGATGAGA", "PBM E-score": -0.0352}
{"sequence": "AGGGTAAC", "PBM E-score": -0.163}
{"sequence": "CCTATGTA", "PBM E-score": -0.0157}
{"sequence": "GTATAGAC", "PBM E-score": 0.155}
{"sequence": "AGCAGGTA", "PBM E-score": -0.194}
{"sequence": "CGCAAACG", "PBM E-score": 0.231}
{"sequence": "CAAACCGG", "PBM E-score": -0.177}
{"sequence": "ACCAAGGC", "PBM E-score": -0.197}
{"sequence": "CGGCGCTA", "PBM E-score": -0.251}
{"sequence": "GCAGATGA", "PBM E-score": -0.0175}
{"sequence": "AGTGTCCG", "PBM E-score": -0.00066}
{"sequence": "ATAGTCAC", "PBM E-score": 0.134}
{"sequence": "AGGATATC", "PBM E-score": -0.103}
{"sequence": "GCTCTGAA", "PBM E-score": -0.00853}
{"sequence": "ATCCGGGA", "PBM E-score": -0.295}
{"sequence": "ACGGTAAC", "PBM E-score": 0.169}
{"sequence": "AAGGTCCC", "PBM E-score": -0.0151}
{"sequence": "CAGACCGA", "PBM E-score": -0.265}
{"sequence": "CTTGATCA", "PBM E-score": 0.1}
{"sequence": "ACGAATCT", "PBM E-score": 0.255}
